# Reference: PubChem BioAssay AID504832 (National Center for Advancing Translational Sciences (NCATS), 2011)
# In all, about 310,000 compounds went through this assay and about 18,000 (5.8%) were called active. This list was built around the results that the source calls inconclusive (neither active nor inactive); the mix of calls is not that of the screen. The call rests on the fitted dose curve; in most records, active means well fitted inhibition curve with a large enough effect; inconclusive means small, poorly fitted or top-dose-only effect, or another doubt; inactive means no such curve, though single readings can be large or run the other way. Potencies of inconclusive entries are left out as doubtful fits.
# Experiment: Primary qHTS for delayed death inhibitors of the malarial parasite plastid, 48 hour incubation
# Settings: P. falciparum luciferase growth in erythrocytes; series mostly up to 28.7 µM
# Procedure, shortened: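 Here the parasites carry a stable luciferase gene and grow inside erythrocytes in Albumax-based RPMI medium with compound for one erythrocytic cycle. Activity is scored as loss of luminescent signal.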
# Potency means the concentration at half of the fitted maximal effect; tags describe the fitted curve by direction and shape.
row,Compound,Potency
1,CCOC(=O)N1CCc2c(sc(NC(=O)CN3CCOCC3)c2C(=O)Nc2ccccc2)C1,"inconclusive [inhibitor, single point]"
2,COc1ccc(C(C)=O)cc1COC(=O)c1ccc2ccccc2n1,inactive
3,COc1ccc(NC(=O)CN(C)C(=O)CCSc2ccc(C)cc2)cc1,"inconclusive [inhibitor, single point]"
4,O=C(Nc1nc2ccc([N+](=O)[O-])cc2s1)c1ccc(S(=O)(=O)N2CCCc3ccccc32)cc1,"inconclusive [inhibitor, partial curve, poor fit]"
5,COc1ccc2cc(/C=N/O)c(Cl)nc2c1,"inconclusive [inhibitor, single point]"
6,Cc1ccc(OCc2nnc(SCC(=O)c3ccccc3)n2Cc2ccco2)cc1,"inconclusive [inhibitor, partial curve, poor fit]"
7,COc1cc(/C=C/C(=O)O)cc(S(=O)(=O)N2CCCc3ccccc32)c1OC,inactive
8,CC(=O)C1=C(C)N(Cc2ccccc2)C(=O)N[C@H]1c1cccs1,"inconclusive [inhibitor, partial curve, poor fit]"
9,O=C(N/N=C/c1ccc(O)c2ncccc12)c1cccc(Br)c1,"inconclusive [inhibitor, partial curve, poor fit]"
10,O=C(CSc1nc2ccccc2c(=O)n1CCCO)Nc1ccc2c(c1)OCCO2,"inconclusive [inhibitor, partial curve, poor fit]"
11,CCCCNc1ncnc2sc3c(c12)CCN(CCC)C3,"inconclusive [inhibitor, single point]"
12,CCOC(=O)c1c(NC(=O)c2ccn(CC)n2)sc2c1CCCC2,active: 10.4 µM
13,Cc1ccc(NC(=O)Cc2ccccc2Cl)cc1S(=O)(=O)N(C)C,inactive
14,NC(=O)CSc1nnc2n(N)c(=O)c3ccccc3n12,inactive
15,COc1ccc2[nH]c(=O)c(CN(C(C)=O)c3ccc(C)cc3C)cc2c1,"inconclusive [inhibitor, full curve, poor fit]"
16,Cc1ccccc1NC(=O)NC1(C(=O)NCc2ccco2)CCCCC1,inactive
17,O=C(COc1ccc(Cl)cc1)Nc1ccc2c(c1)nc1n2CCOC1,inactive
18,CN1C(C(=O)NCc2ccco2)=CC(c2ccc(F)cc2)=NS1(=O)=O,inactive
19,CC(C)CCN1CCN(CC#Cc2ccccc2)CC1CCO (stereo not given),"inconclusive [inhibitor, partial curve, poor fit]"
20,COC(=O)C1C(=O)C=C(Nc2ccc(F)cc2F)CC1c1ccc(OC)cc1 (stereo not given),inactive
21,Cc1ccc2c(CSc3nc4nc(C)cc(C)n4n3)cc(=O)oc2c1,"inconclusive [inhibitor, single point]"
22,Cc1cccc(C)c1N(CC(=O)NCc1ccco1)C(=O)CNS(=O)(=O)c1ccc(F)cc1,inactive
23,Cc1c(C(=O)Nc2nc(-c3ccccn3)cs2)oc2ccccc12,active: 6.57 µM

row,Compound,Potency
1,CCOc1cccc(OCCOc2ccccc2[N+](=O)[O-])c1,"inconclusive [inhibitor, partial curve, poor fit]"
2,Oc1c(/C=N/Nc2cccc3cccnc23)ccc2ccccc12,active: 5.86 µM
3,CCCCCCC(O)(c1ccc(OC)cc1)C(CN1CCOCC1)c1ccccc1 (stereo not given),active: 1.85 µM
4,CC(C)Oc1ccccc1C1CC(=O)Nc2cc3c(cc21)OCO3 (stereo not given),"inconclusive [inhibitor, single point]"
5,COc1ccc(NC(=O)CN2C(=O)COc3ccccc32)cc1OC,"inconclusive [inhibitor, single point]"
6,O=C(Cc1ccc2c(c1)OCCO2)Nc1ccc(Cl)c(S(=O)(=O)N2CCOCC2)c1,"inconclusive [inhibitor, single point]"
7,Cc1ccc(S(=O)(=O)N2CCN(C(=O)c3ccc(-n4cncn4)c([N+](=O)[O-])c3)CC2)cc1C,"inconclusive [inhibitor, partial curve]"
8,CC(Sc1nnc(-c2ccncc2)n1-c1ccc(F)cc1)C(=O)NC1CC1 (stereo not given),"inconclusive [inhibitor, partial curve, poor fit]"
9,COC(=O)c1sc(NC(=S)NC(=O)c2ccc(F)cc2)nc1C,inactive
10,COc1cccc(N2CCN(C3CC(=O)N(c4cccc(Cl)c4)C3=O)CC2)c1 (stereo not given),inactive
11,CCO[C@@H]1OC(C(=O)N2CCCCCCC2)=C[C@H](C2CCCCC2)[C@H]1CCCO,active: 10.4 µM
12,CC[n+]1ccccc1/C=C/c1ccc(N(C)C)cc1,active: 2.94 µM
13,CCn1c(=N)n(CC(=O)c2ccc(OC)c(OC)c2)c2ccccc21,"inconclusive [inhibitor, single point]"
14,N#CN1CCC(NS(=O)(=O)c2ccc(C(F)(F)F)cc2)C1 (stereo not given),"inconclusive [inhibitor, partial curve, poor fit]"
15,Cc1ccn2c(=O)c(NC(=O)c3cccc4ccccc34)c(C)nc2c1,inactive
16,Cc1ccc(S(=O)(=O)N2[C@@H](c3ccccc3F)C(C(=O)O)=CC[C@H]2c2cccc(C)c2)cc1,"inconclusive [inhibitor, partial curve, poor fit]"
17,O=C(COC(=O)c1ccc(O)cc1)Nc1ccc(Cl)cc1,"inconclusive [inhibitor, full curve, poor fit]"
18,CCCc1n(CC(O)COCC2CC=CCC2)c2ccccc2[n+]1C (stereo not given),"inconclusive [inhibitor, partial curve]"
19,Cc1ccc(-n2nc(C)c(C(=O)Nc3cccc(C(=O)NC4CC4)c3)n2)c(C)c1,"inconclusive [inhibitor, single point]"
20,Cn1ccnc1C1CCCCN1C(=O)c1cc(COc2ccc(F)cc2Cl)on1 (stereo not given),"inconclusive [inhibitor, full curve]"
21,Cc1c(C(=O)N2CCN(c3ccc(F)cc3)CC2)sc2ncnc(N3CCN(c4ccccn4)CC3)c12,active: 10.4 µM
22,NS(=O)(=O)c1ccc(NC(=O)CSc2nc(Nc3ccccc3)nc(N3CCOCC3)n2)cc1,"inconclusive [inhibitor, single point]"
